# This is one part of the list.
# B1: GS7807H-bfa-490-18-490 (Bacteroides fragilis) (protein)
# chain: GNLEEMNIDPDNATQTHPKLLLTQICMNAFKRGTDGMYATKKVIQADGESADQYYKWTRGSFGYYDNLRNVQKMGEEAERVNAPVYTALTKFFRAYYFYELTLRFGDIPYSQALKGEKEEIYTPEYDAQEDVFAGILQELREADEILANDASVIDGDIIYNGNSTQWRKLINSFRLKVLMTLSNHTTVGNINIASEFKNIATNSPLMNSLADNGQLVYLDQQGNRYPQFNAQWSGYYMDDTFIQRMRERRDPRLFIFSAQTNKGKTEGKPIDDFSSYEGGDPAAPYSDAIIKVSEGTISPINDRFRTDPIVEPTMLMGYAELQQILAEAVVRGWISGNAQTYYEKGIRASFSFYETHAKDYAGYLNENAVAQYLKEPLVDFTQASGTEEQIERIIMQKYLVTFYQGNWDSFYEQLRTGYPDFRRPAGTEIPKRWMYPQGEYDNNGTNVETAITRQFGAGNDKINQATWWQKKS
# Tests used:
# Test in all cases: glycan array binding signal (z-score within array); higher = stronger binding
# Details in all cases: glycan notation: IUPAC condensed, linker removed
# [1] = biological target: Man(a1-2)Man(a1-3)[Man(a1-2)Man(a1-6)]Man(a1-6)[Man(a1-2)Man(a1-2)Man(a1-3)]Man
# Method in brief: (§1)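 Negative Z-scores can be read as non-binding. The Z-score is calculated within each array and then averaged across arrays of one protein sequence at different concentrations or buffers and across linkers. Arrays, 3228 in all, were curated from the Consortium for Functional Glycomics database and kept only where the protein sequence was available.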
# [2] = biological target: Man(a1-2)Man(a1-3)[Man(a1-2)Man(a1-6)]Man(a1-6)[Man(a1-2)Man(a1-2)Man(a1-3)]Man(b1-4)GlcNAc(b1-4)GlcNAc
# Method in brief: as §1
# [3] = biological target: Man(a1-2)Man(a1-3)[Man(a1-6)]Man(a1-6)[Man(a1-2)Man(a1-3)]Man(b1-4)GlcNAc(b1-4)GlcNAc
# Method in brief: as §1
# [4] = biological target: Man(a1-2)Man(a1-6)[Man(a1-3)]Man(a1-6)[Man(a1-2)Man(a1-2)Man(a1-3)]Man
# Method in brief: as §1
# [5] = biological target: Man(a1-2)Man(a1-6)[Man(a1-3)]Man(a1-6)[Man(a1-2)Man(a1-2)Man(a1-3)]Man(b1-4)GlcNAc(b1-4)GlcNAc
# Method in brief: as §1
# [6] = biological target: Man(a1-3)[Man(a1-6)]Man
# Method in brief: as §1
# [7] = biological target: Man(a1-3)[Man(a1-6)]Man(a1-6)[Man(a1-2)Man(a1-3)]Man(b1-4)GlcNAc(b1-4)GlcNAc
# Method in brief: as §1
# [8] = biological target: Man(a1-3)[Man(a1-6)]Man(a1-6)[Man(a1-3)]Man
# Method in brief: as §1
# [9] = biological target: Man(a1-3)[Man(a1-6)]Man(a1-6)[Man(a1-3)]Man(b1-4)GlcNAc(b1-4)GlcNAc
# Method in brief: as §1
# [10] = biological target: Man(a1-3)[Man(a1-6)]Man(b1-4)GlcNAc(b1-4)GlcNAc
# Method in brief: as §1
# [11] = biological target: Man(a1-3)[Man(a1-6)]Man(b1-4)GlcNAc(b1-4)[Fuc(a1-6)]GlcNAc
# Method in brief: as §1
# [12] = biological target: Man(a1-6)Man
# Method in brief: as §1
# [13] = biological target: Man(b1-4)GlcNAc
# Method in brief: as §1
# [14] = biological target: MurNAc(b1-4)GlcNAc
# Method in brief: as §1
# [15] = biological target: Neu5Ac(a2-3)Gal
# Method in brief: as §1
# [16] = biological target: Neu5Ac(a2-3)Gal(b1-3)GalNAc
# Method in brief: as §1
# [17] = biological target: Neu5Ac(a2-3)Gal(b1-3)GalNAc(b1-3)Gal(a1-4)Gal(b1-4)Glc
# Method in brief: as §1
# [18] = biological target: Neu5Ac(a2-3)Gal(b1-3)GalNAc(b1-4)[Neu5Ac(a2-3)]Gal(b1-4)Glc
# Method in brief: as §1
# [19] = biological target: Neu5Ac(a2-3)Gal(b1-3)GalNAc(b1-4)[Neu5Ac(a2-8)Neu5Ac(a2-3)]Gal(b1-4)Glc
# Method in brief: as §1
# [20] = biological target: Neu5Ac(a2-3)Gal(b1-3)GalNAc6S
# Method in brief: as §1
# [21] = biological target: Neu5Ac(a2-3)Gal(b1-3)GlcNAc
# Method in brief: as §1
# [22] = biological target: Neu5Ac(a2-3)Gal(b1-3)GlcNAc(b1-2)Man
# Method in brief: as §1
# [23] = biological target: Neu5Ac(a2-3)Gal(b1-3)GlcNAc(b1-2)Man(a1-3)[GlcNAc(b1-4)][Neu5Ac(a2-3)Gal(b1-3)GlcNAc(b1-2)Man(a1-6)]Man(b1-4)GlcNAc(b1-4)GlcNAc
# Method in brief: as §1
# [24] = biological target: Neu5Ac(a2-3)Gal(b1-3)GlcNAc(b1-2)Man(a1-3)[Neu5Ac(a2-3)Gal(b1-3)GlcNAc(b1-2)Man(a1-6)]Man(b1-4)GlcNAc(b1-4)GlcNAc
# Method in brief: as §1
# [25] = biological target: Neu5Ac(a2-3)Gal(b1-3)GlcNAc(b1-3)Gal(b1-3)GlcNAc
# Method in brief: as §1
# [26] = biological target: Neu5Ac(a2-3)Gal(b1-3)GlcNAc(b1-3)Gal(b1-4)GlcNAc
# Method in brief: as §1
# [27] = biological target: Neu5Ac(a2-3)Gal(b1-3)GlcNAc(b1-3)GalNAc
# Method in brief: as §1
# [28] = biological target: Neu5Ac(a2-3)Gal(b1-3)GlcNAc(b1-4)Gal(b1-4)Glc
# Method in brief: as §1
# [29] = biological target: Neu5Ac(a2-3)Gal(b1-3)GlcNAc(b1-6)GalNAc
# Method in brief: as §1
# [30] = biological target: Neu5Ac(a2-3)Gal(b1-3)GlcNAc6S
# Method in brief: as §1
# [31] = biological target: Neu5Ac(a2-3)Gal(b1-3)[Fuc(a1-4)]GlcNAc
# Method in brief: as §1
# [32] = biological target: Neu5Ac(a2-3)Gal(b1-3)[Fuc(a1-4)]GlcNAc(b1-3)Gal(b1-3)[Fuc(a1-4)]GlcNAc
# Method in brief: as §1
# [33] = biological target: Neu5Ac(a2-3)Gal(b1-3)[Fuc(a1-4)]GlcNAc(b1-3)Gal(b1-4)[Fuc(a1-3)]GlcNAc
# Method in brief: as §1
# [34] = biological target: Neu5Ac(a2-3)Gal(b1-3)[GlcNAc(b1-6)]GalNAc
# Method in brief: as §1
# [35] = biological target: Neu5Ac(a2-3)Gal(b1-3)[Neu5Ac(a2-6)]GalNAc
# Method in brief: as §1
# [36] = biological target: Neu5Ac(a2-3)Gal(b1-3)[Neu5Ac(a2-6)]GlcNAc(b1-3)[Fuc(a1-3)[Gal(b1-4)]GlcNAc(b1-6)]Gal(b1-4)Glc
# Method in brief: as §1
# [37] = biological target: Neu5Ac(a2-3)Gal(b1-3)]Neu5Ac(a2-3)Gal(b1-4)]GlcNAc
# Method in brief: as §1
binder,measurement,setting,value
B1,glycan array binding signal (z-score),[1],-0.685
same,glycan array binding signal (z-score),[2],0.436
same,glycan array binding signal (z-score),[3],-0.58
same,glycan array binding signal (z-score),[4],-0.652
same,glycan array binding signal (z-score),[5],-0.028
same,glycan array binding signal (z-score),[6],0.452
same,glycan array binding signal (z-score),[7],-0.318
same,glycan array binding signal (z-score),[8],0.534
same,glycan array binding signal (z-score),[9],-0.545
same,glycan array binding signal (z-score),[10],-0.36
same,glycan array binding signal (z-score),[11],0.267
same,glycan array binding signal (z-score),[12],0.122
same,glycan array binding signal (z-score),[13],0.132
same,glycan array binding signal (z-score),[14],0.202
same,glycan array binding signal (z-score),[15],-0.022
same,glycan array binding signal (z-score),[16],-0.368
same,glycan array binding signal (z-score),[17],0.648
same,glycan array binding signal (z-score),[18],-0.178
same,glycan array binding signal (z-score),[19],0.236
same,glycan array binding signal (z-score),[20],-0.385
same,glycan array binding signal (z-score),[21],-0.033
same,glycan array binding signal (z-score),[22],-0.084
same,glycan array binding signal (z-score),[23],0.388
same,glycan array binding signal (z-score),[24],0.002
same,glycan array binding signal (z-score),[25],-0.111
same,glycan array binding signal (z-score),[26],-0.526
same,glycan array binding signal (z-score),[27],-0.06
same,glycan array binding signal (z-score),[28],-0.292
same,glycan array binding signal (z-score),[29],0.867
same,glycan array binding signal (z-score),[30],-0.419
same,glycan array binding signal (z-score),[31],0.052
same,glycan array binding signal (z-score),[32],1.31
same,glycan array binding signal (z-score),[33],-0.584
same,glycan array binding signal (z-score),[34],-0.662
same,glycan array binding signal (z-score),[35],-0.479
same,glycan array binding signal (z-score),[36],-0.176
same,glycan array binding signal (z-score),[37],0.031
